The source of these data is PubChem BioAssay AID360 (National Center for Advancing Translational Sciences (NCATS), 2006).

Out of some 48,000 compounds screened, about 550 (1.1%) were called active. Roughly 4% stayed inconclusive and do not appear here. Cut-off read from the data, not from the text of the source: active = potency below about 15 µM; inconclusive = mostly about 16 µM to 33 µM; inactive = weaker than that. Some of the results follow.
Potency is the fitted concentration of half-maximal effect.

Chain of UniProt P04062 (P04062 whole entry, looked up): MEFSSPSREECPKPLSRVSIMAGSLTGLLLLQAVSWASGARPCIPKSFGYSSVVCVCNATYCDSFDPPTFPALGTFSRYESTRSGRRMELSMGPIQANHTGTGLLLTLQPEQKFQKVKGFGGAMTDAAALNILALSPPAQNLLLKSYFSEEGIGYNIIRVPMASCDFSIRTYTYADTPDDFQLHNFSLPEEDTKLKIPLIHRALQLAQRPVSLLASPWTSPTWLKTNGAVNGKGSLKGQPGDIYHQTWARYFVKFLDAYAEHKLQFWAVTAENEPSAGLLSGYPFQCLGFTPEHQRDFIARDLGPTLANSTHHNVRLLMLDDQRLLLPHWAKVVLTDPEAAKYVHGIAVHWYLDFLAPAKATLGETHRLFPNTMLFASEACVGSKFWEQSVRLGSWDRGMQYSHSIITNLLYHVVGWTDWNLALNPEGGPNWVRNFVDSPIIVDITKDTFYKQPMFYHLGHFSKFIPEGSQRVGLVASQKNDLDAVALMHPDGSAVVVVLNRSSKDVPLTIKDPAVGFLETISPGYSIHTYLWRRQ

This assay concerns the target Lysosomal acid glucosylceramidase (Homo sapiens) (UniProt P04062). Nature of the assay: Glucocerebrosidase.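 Note: the screen sought inhibitors.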 To be noted: purified enzyme, resorufin glucoside fluorescence (screen aimed at inhibitors), 20 min. In short, it runs like this:
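Compounds titrated against 0.2 nM normal enzyme, 30 uM resorufin beta-D-glucopyranoside substrate, citrate/phosphate buffer with taurocholate and tween-20, pH 5.9. Reaction ran 20 min at room temperature; fluorescence (Ex 548/Em 600) gave AC50.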
As to `O=C(OCC(=O)N1CCN(C(=O)c2ccco2)CC1)c1sc2ccccc2c1Cl`, the Potency was inactive: > 76.9 µM. Turning to `Cc1cccc(CS(=O)(=O)Cc2ccc(C(=O)NCCN3CCCCC3C)o2)c1` (stereo not given), the Potency is inactive: > 76.9 µM. As for `Clc1cccc(Cl)c1-c1nnc2ccc(N3CCOCC3)nn12`, the Potency was inactive: > 76.9 µM.

In the case of `CC1CC(C)CN(C(=O)Cn2c(=O)n(CCCCC(=O)NC3CCCC3)c(=O)c3ccccc32)C1` (stereo not given), the Potency is inactive: > 76.9 µM. In the case of `Cn1c(=O)c2c(n(Cc3ccccc3)c1=O)NC(=O)C2CC(=O)N1CCc2ccccc2C1` (stereo not given), the Potency is inactive: > 76.9 µM. Then `Cc1cc2nc(SCC(=O)Nc3nonc3C)c3c(c2cc1C)CCCC3`, with inactive: > 76.9 µM; and `COc1ccc(NC(=O)c2ccco2)cc1NC(=O)c1cccc(OC(C)C)c1`, with active: 9.83 µM; and `CCOC(=O)CC(=O)Nc1nnc(C(C)C)s1`, with inactive: > 76.9 µM. As for `CS(=O)(=O)N(Cc1nnc(-c2cccs2)o1)c1ccc(Cl)cc1F`, the Potency was inactive: > 76.9 µM. As for `CCOc1ccc(S(=O)(=O)n2nnc3ccccc32)cc1C`, the Potency is inactive: > 76.9 µM.

Consider `COc1cccc(NC(=O)c2ncn[nH]2)c1`, for which the Potency was inactive: > 76.9 µM. Regarding `COc1ccc(OC)c(N(CC(=O)Nc2cccnc2)S(=O)(=O)c2ccc(OC)c(OC)c2)c1`, the Potency was inactive: > 76.9 µM. For `CCOC(=O)N1CCC(NC(=O)C2CCCN(c3nc4ccccc4o3)C2)CC1` (stereo not given), the Potency is inactive: > 76.9 µM.

Regarding `COc1cc2nc(=S)n3[nH]c(CCn4nc(C)cc4C)nc3c2cc1OC`, the Potency is inactive: > 76.9 µM. On to `Cc1ccccc1Nc1nnc(SCC(=O)NCc2ccco2)s1`, for which the Potency result is “inactive”. As to `COc1cccc(CC(=O)Nn2c(C)nc3ccccc3c2=O)c1`, the Potency was inactive: > 76.9 µM. For the compound `Cc1noc(C)c1COC(=O)c1cc(F)c(F)cc1Cl`, the Potency was inactive: > 76.9 µM. For `COCCn1c(=S)[nH]c2cc(C(=O)NCCCN3CCOCC3)ccc2c1=O`, the Potency is inactive: > 76.9 µM. Then `O=C(Cn1cnc2c(cnn2-c2ccc(Cl)cc2)c1=O)NCC1CCCO1` (stereo not given), with inactive: > 76.9 µM. For `CCN1CCN(C(=O)CN(c2ccc(C)cc2)S(C)(=O)=O)CC1`, the Potency was inactive: > 76.9 µM. Regarding `CCCCC(=O)NCCNc1nc2c(c(=O)n(C)c(=O)n2C)n1Cc1ccc(F)cc1`, the Potency was inactive: > 76.9 µM. Consider `N#Cc1cc2c(=O)n3ccccc3nc2n(CCN2CCOCC2)c1=O`, for which the Potency is inactive: > 76.9 µM. As to `CC(C)c1nc2oc3c(=O)[nH]cnc3c2c2c1CCC2`, the Potency is inactive: > 76.9 µM. With `O=C(NCc1cccnc1)c1cc(-c2ccccc2)on1`, the Potency was inactive: > 76.9 µM. For `COc1ccc(NC(=O)NCCN2CCc3ccccc3C2)cc1`, the Potency is inactive: > 76.9 µM. Consider `CCOC(=O)c1cc2cc(F)ccc2nc1C`, for which the Potency was inactive: > 76.9 µM.

With `CC(C)(C)n1ncc2c(=O)n(CC(=O)NCCc3ccccc3)cnc21`, the Potency is inactive: > 76.9 µM.

For the compound `Cn1c(SCC(=O)c2ccccc2F)nnc1C1CC1`, the Potency is inactive: > 76.9 µM.

As for `CC(C)Cn1c(N)c(C(=O)COC(=O)C2=COCCO2)c(=O)n(C)c1=O`, the Potency was inactive: > 76.9 µM.

With `COC(=O)c1cccc(NC(=O)CN2CCOCC2)c1`, the Potency is inactive: > 76.9 µM. Consider `CCOC(=O)COc1cc(=O)n(CC)c2ccccc12`, for which the Potency is inactive: > 76.9 µM. With `COCCn1nnnc1C(c1ccccc1Cl)N1CCN(c2ccccc2OC)CC1` (stereo not given), the Potency was inactive: > 76.9 µM. Turning to `CCNC(=O)CC1C(=O)N(c2ccc(C)cc2)C(=O)N1Cc1ccccn1` (stereo not given), the Potency was inactive: > 76.9 µM.

As for `CCOc1ccc(NC(=O)CSc2nnc(-c3ccco3)n2C)cc1`, the Potency is inactive: > 76.9 µM. As to `CCOc1ccc(NC(=O)CCNS(=O)(=O)c2ccc3c(c2)c(=O)n(C)c(=O)n3C)cc1`, the Potency is inactive: > 76.9 µM. For the compound `Cc1nccn1CCc1nc(N)nc(N)n1`, the Potency was inactive: > 76.9 µM.

With `CCn1cc(C(=O)NCc2cccnc2)c2cc(OC)c(OC)cc2c1=O`, the Potency is inactive: > 76.9 µM. For the compound `c1ccc(Cc2nn3c(Cn4nnc5ccccc54)nnc3s2)cc1`, the Potency was inactive: > 76.9 µM.

As to `CCn1nc(C(=O)NC2=NCCS2)c2ccccc2c1=O`, the Potency was inactive: > 76.9 µM.

As for `CCOC(=O)c1cc2c(n(-c3ccccc3)c1=O)CC(C)(C)CC2=O`, the Potency was inactive: > 76.9 µM.

For `CCN(CC)CCN1C(=O)C(=O)/C(=C(/O)c2c(C)[nH]c(C(=O)OC)c2C)C1c1cccnc1` (stereo not given), the Potency was inactive: > 76.9 µM. `O=C(OCC(=O)c1cccs1)c1ccc(NC(=O)c2ccco2)cc1`: the Potency was inactive: > 76.9 µM.

As for `O=C(OCC(=O)N(C1CCCCC1)C1CCCCC1)c1ccncc1`, the Potency result is “inactive”. Regarding `FC(F)(F)c1ccc(N2CCOCC2)c(Nc2nc3ccccc3n3cnnc23)c1`, the Potency entry is “inactive”. On to `O=C(NC1CCCCNC1=O)c1ccc(Cl)cc1` (stereo not given), for which the Potency is inactive: > 76.9 µM. As for `Cc1cc(NC(=O)CSc2ccc(-c3nc4cc(C)c(C)cc4[nH]3)cn2)no1`, the Potency is inactive: > 76.9 µM.

For `Cc1ccc(NC(=O)c2cccc(Cl)c2)nc1`, the Potency is inactive: > 76.9 µM. As to `COc1ccc(OC)c(C(=O)CSc2nc3ncccc3[nH]2)c1`, the Potency was inactive: > 76.9 µM.

Regarding `COc1cc(C(=O)NC2CC3CCCC(C2)N3C2CC2)cc(OC)c1OC` (stereo not given), the Potency was inactive: > 76.9 µM. The same measure for `Nc1nc(NC(=O)c2cccnc2)nn1-c1ccccc1`: inactive: > 76.9 µM.

Consider `COc1ccc(C)cc1NC(=O)CN1CCN(S(=O)(=O)c2ccc(C(C)C)cc2)CC1`, for which the Potency entry was “inactive”.

Regarding `O=C(Nc1nncs1)C1(c2ccccc2)CCCC1`, the Potency is inactive: > 76.9 µM. Consider `NC(=O)c1ccccc1NS(=O)(=O)c1cccs1`, for which the Potency was inactive: > 76.9 µM. The same measure for `COc1ccc(-c2nn(-c3ccccc3)cc2C(=O)Nc2nc(CC(C)=O)ns2)cc1`: inactive: > 76.9 µM; for `C=CCN1C(=O)CSc2ccc(C(=O)OCC)cc21`: inactive: > 76.9 µM. Regarding `CCCCN(C)C(=O)c1oc2ccc(S(=O)(=O)N3CCCCCC3)cc2c1C`, the Potency was inactive: > 76.9 µM. In the case of `CCCn1c(SCC(=O)Nc2nc3c(s2)CCCC3)nc2c1c(=O)n(C)c(=O)n2C`, the Potency was inactive: > 76.9 µM. The same measure for `CCOC(=O)c1nnn(-c2nonc2N)c1CN(C)C1CCCCC1`: “inactive”; for `CCOC(=O)c1cn(CC)c2cc(N3CCCCC3)c(F)cc2c1=O`: inactive: > 76.9 µM; for `CC(C)N(C(=O)COC(=O)c1ccc(O)cc1)C(C)C`: inactive: > 76.9 µM. Consider `CC1=C(C(N)=O)C(c2cccnc2)n2nc(SCc3ccccc3Cl)nc2N1` (stereo not given), for which the Potency is inactive: > 76.9 µM. Take `O=c1oc2c(CN3CCCCC3)c(O)ccc2cc1-c1nc2ccccc2[nH]1`: the Potency is inactive: > 76.9 µM.

On to `Cn1nnc2cc(C(=O)N3CCC(c4ccccc4)C3)ccc21` (stereo not given), for which the Potency was inactive: > 76.9 µM. As to `Cc1nc2cc(N3CCOCC3)c(NC(=O)C3CC3)cc2c(=O)n1Cc1ccccc1`, the Potency is inactive: > 76.9 µM. For `COc1ccc(S(=O)(=O)N2CCCN(CC(=O)Nc3cc(NC(C)=O)ccc3OC)CC2)cc1`, the Potency was inactive: > 76.9 µM.

Turning to `O=C(CCCCCN1C(=O)c2ccccc2C1=O)Nc1ccc(S(=O)(=O)N2CCCCC2)cc1`, the Potency was inactive: > 76.9 µM. As to `COC(=O)Cc1n[nH]c(=S)[nH]c1=O`, the Potency was inactive: > 76.9 µM. The same measure for `COc1cc2c(cc1OC)-c1cc(N3CCCc4ccccc43)nc(=O)n1CC2`: inactive: > 76.9 µM; for `CSc1ccc(NC(=O)NCCCN2CCN(c3ccccc3F)CC2)cc1`: inactive: > 76.9 µM; for `CCN(CC)S(=O)(=O)c1ccc(Cl)c(C(=O)NCC2CCCO2)c1` (stereo not given): inactive: > 76.9 µM. As for `O=C(NC1CCCC1)C1CCCN1C(=O)Nc1ccccc1Cl` (stereo not given), the Potency is inactive: > 76.9 µM.

As for `COc1ccc(-c2ocnc2C(=O)Nc2ccccc2N2CCCCC2)cc1`, the Potency was inactive: > 76.9 µM. Then `COc1cc(C(=O)O)ccc1OC(C)=O`, with “inactive”. Consider `O=C(CCc1nc(-c2ccccc2F)no1)NCc1ccco1`, for which the Potency was inactive: > 76.9 µM. The same measure for `COc1cc(OC)cc(OCC(O)Cn2cnc(-c3ccccc3)c2)c1` (stereo not given): inactive: > 76.9 µM. For `O=C(CN(Cc1cccs1)C(=O)CNS(=O)(=O)c1ccc(F)cc1)NCc1ccco1`, the Potency is inactive: > 76.9 µM.

On to `Cn1c(=O)[nH]c(=O)c2c1nc(Sc1nc3ccccc3s1)n2Cc1ccccc1`, for which the Potency was inactive: > 76.9 µM.

Take `CCCn1c(=S)[nH]c2cc(C(=O)N3CCN(c4ccccc4OC)CC3)ccc2c1=O`: the Potency is inactive: > 76.9 µM. On to `COc1ccc(NC(=O)C2CCCN(S(=O)(=O)c3c(C)n[nH]c3C)C2)c(OC)c1` (stereo not given), for which the Potency is inactive: > 76.9 µM. `O=C(CSc1nnc(-c2ccccc2)o1)NC1CCCCC1`: the Potency is inactive: > 76.9 µM.

Turning to `Cc1ccc(-c2csc3nnc(SCC(=O)Nc4nsc(-c5ccccc5)n4)n23)cc1`, the Potency result is “inactive”. For `CCCc1nc2ccccc2c(=O)n1NC(=O)c1c(O)c2cccc3c2n(c1=O)CCC3`, the Potency is inactive: > 76.9 µM. On to `CC1(C)CC(=O)C(CC(=O)Nc2ccc(S(N)(=O)=O)cc2)=C(O)C1`, for which the Potency was inactive: > 76.9 µM. Regarding `CN1CCC(OC(=O)C23CCC(C)(C(=O)O2)C3(C)C)CC1` (stereo not given), the Potency is inactive: > 76.9 µM.

Take `Cc1cc(-c2nc3ncccc3o2)ccc1N`: the Potency is inactive: > 76.9 µM. As to `COc1ccc(CC(=O)OCC(=O)Nc2c(C)n(C)n(-c3ccccc3)c2=O)cc1`, the Potency was inactive: > 76.9 µM. Then `O=C(CC1=NC2(CCCC2)Cc2ccccc21)N1CCOCC1`, with inactive: > 76.9 µM; and `CC(C)(C)CC(=O)N1CCC(c2nc3c(nnn3Cc3c(F)cccc3Cl)c(=O)[nH]2)CC1`, with “inactive”.

As to `COC(=O)c1ccc(NC(=O)CN2CCOCC2)cc1`, the Potency was inactive: > 76.9 µM. Consider `CCN1CC2CCCC3(C1)C(=O)NC1(CCCCC1)N=C23` (stereo not given), for which the Potency was inactive: > 76.9 µM.
